No constants are given. Whether binding was seen depends on the method and setting. In cells and extracts the contact can be indirect. Some entries that bind do so weakly or less than the wild type. Where a sequence is shown, tags or fusion partners need not be part of it.
Target: T1, FLAG-tagged PKP2 N109 (N-terminal amino acid 1-109 of PKP2) (human) (UniProt Q99959)
T1 sequence: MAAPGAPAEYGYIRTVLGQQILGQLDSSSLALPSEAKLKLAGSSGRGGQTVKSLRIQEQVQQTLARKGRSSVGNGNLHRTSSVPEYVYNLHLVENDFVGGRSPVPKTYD
Assay: co-IP; tagged proteins co-transfected into HEK293 cells, lysed after 48 h (50 mM Tris-HCl pH 7.5, 10 mM MgCl2, 100 mM NaCl, 0.5% Nonidet P40, 10% glycerol); immunoprecipitated overnight at 4 °C with the indicated antibody plus protein A/G agarose or anti-FLAG M2 gel; Western blot

Sequences of proteins named here, by UniProt entry; tags and fusion partners are left off.
UniProt Q96EP0: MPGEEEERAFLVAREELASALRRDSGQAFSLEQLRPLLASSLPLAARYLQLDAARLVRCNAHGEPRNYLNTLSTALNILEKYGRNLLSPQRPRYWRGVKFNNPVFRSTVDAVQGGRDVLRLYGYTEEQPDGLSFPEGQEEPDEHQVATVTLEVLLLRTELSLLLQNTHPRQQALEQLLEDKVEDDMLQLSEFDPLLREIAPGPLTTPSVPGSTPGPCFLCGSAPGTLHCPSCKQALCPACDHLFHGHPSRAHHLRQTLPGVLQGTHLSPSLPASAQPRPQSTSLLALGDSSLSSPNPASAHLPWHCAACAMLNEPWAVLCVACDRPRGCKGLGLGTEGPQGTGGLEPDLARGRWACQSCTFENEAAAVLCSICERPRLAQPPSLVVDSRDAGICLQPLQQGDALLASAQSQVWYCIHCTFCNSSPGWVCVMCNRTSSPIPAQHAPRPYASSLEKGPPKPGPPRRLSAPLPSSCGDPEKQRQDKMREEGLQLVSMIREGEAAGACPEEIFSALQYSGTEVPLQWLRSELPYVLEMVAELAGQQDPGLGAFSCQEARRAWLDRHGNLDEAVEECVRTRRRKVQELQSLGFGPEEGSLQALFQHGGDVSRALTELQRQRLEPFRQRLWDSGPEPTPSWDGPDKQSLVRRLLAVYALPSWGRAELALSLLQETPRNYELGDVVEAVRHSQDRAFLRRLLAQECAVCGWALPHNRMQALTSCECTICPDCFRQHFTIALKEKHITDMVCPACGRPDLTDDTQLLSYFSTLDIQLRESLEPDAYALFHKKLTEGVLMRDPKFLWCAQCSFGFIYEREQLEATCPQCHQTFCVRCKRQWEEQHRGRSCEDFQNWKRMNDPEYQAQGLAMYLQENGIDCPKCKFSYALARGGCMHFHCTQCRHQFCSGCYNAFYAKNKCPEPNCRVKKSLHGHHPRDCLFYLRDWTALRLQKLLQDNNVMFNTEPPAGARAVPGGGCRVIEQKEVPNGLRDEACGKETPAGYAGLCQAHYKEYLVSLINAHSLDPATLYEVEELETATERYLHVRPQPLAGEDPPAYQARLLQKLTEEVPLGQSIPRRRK

Substance: GFP-tagged EGFR (from UniProt P00533 25-1210) (receptor)
- binding: binds

Substance: HA-tagged HOIP (from UniProt Q96EP0 1-1072) (enzyme)
- binding: binds
